# Measurements: paper PMC12820563
# Some of the results follow. The list includes weakly bound sequences.
# Molecular target: T1, MBP-FoxP3dN (UniProt Q99JB6)
# T1 sequence: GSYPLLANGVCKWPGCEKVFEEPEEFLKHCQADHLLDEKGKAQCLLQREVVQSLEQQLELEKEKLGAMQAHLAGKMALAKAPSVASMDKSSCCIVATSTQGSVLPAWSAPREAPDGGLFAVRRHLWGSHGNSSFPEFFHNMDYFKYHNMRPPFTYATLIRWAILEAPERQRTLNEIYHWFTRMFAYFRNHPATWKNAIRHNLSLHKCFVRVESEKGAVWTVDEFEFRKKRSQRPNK
# Experiment: PD-seq (MBP pull-down with sequencing)
# Details: 20 mM Tris-HCl pH 7.5, 100 mM NaCl, 1.5 mM MgCl2, 0.4 uM protein, 0.1 uM dsDNA library, 30 min, room temperature, amylose pull-down; high values mean tight binding; double strand, one strand shown
row,Sequence,binding signal (RPM ratio (pull-down/input))
1,GATGATTGTTCTCCCAGCTGATGAATTTTAGTAATCGAGTAAACAAATTTTCCTAATCTTTCTGTTCAAGCGCCATCTAC,0.756
2,GATGATTGTTCTCCCAGCTGATGAATTAAGGCTCTCGAGTAAACAAATTTTCCTAATCTTTCTGTTCAAGCGCCATCTAC,0.551
3,GATGATTGTTCTCCCAGCTGATGAATTGATCCATTCGAGTAAACAAATTTTCCTAATCTTTCTGTTCAAGCGCCATCTAC,0.376
4,GATGATTGTTCTCCCAGCTGATGAATTCGTGGCATCGAGTAAACAAATTTTCCTAATCTTTCTGTTCAAGCGCCATCTAC,1.13
5,GATGATTGTTCTCCCAGCTGATGAATTACTAGGATCGAGTAAACAAATTTTCCTAATCTTTCTGTTCAAGCGCCATCTAC,0.302
6,GATGATTGTTCTCCCAGCTGATGAATTTACTATCTCGAGTAAACAAATTTTCCTAATCTTTCTGTTCAAGCGCCATCTAC,0.939
7,GATGATTGTTCTCCCAGCTGATGAATTTCCCGCGTCGAGTAAACAAATTTTCCTAATCTTTCTGTTCAAGCGCCATCTAC,0.413
8,GATGATTGTTCTCCCAGCTGATGAATTTGTGTTATCGAGTAAACAAATTTTCCTAATCTTTCTGTTCAAGCGCCATCTAC,5.3
9,GATGATTGTTCTCCCAGCTGATGAATTATGGTGGTCGAGTAAACAAATTTTCCTAATCTTTCTGTTCAAGCGCCATCTAC,0.588
10,GATGATTGTTCTCCCAGCTGATGAATTCTCACATTCGAGTAAACAAATTTTCCTAATCTTTCTGTTCAAGCGCCATCTAC,0.361
11,GATGATTGTTCTCCCAGCTGATGAATTGGCTGCTTCGAGTAAACAAATTTTCCTAATCTTTCTGTTCAAGCGCCATCTAC,0.464
12,GATGATTGTTCTCCCAGCTGATGAATTGCTTCCGTCGAGTAAACAAATTTTCCTAATCTTTCTGTTCAAGCGCCATCTAC,0.425
13,GATGATTGTTCTCCCAGCTGATGAATTCCTCCCTTCGAGTAAACAAATTTTCCTAATCTTTCTGTTCAAGCGCCATCTAC,0.203
14,GATGATTGTTCTCCCAGCTGATGAATTGTAGGATTCGAGTAAACAAATTTTCCTAATCTTTCTGTTCAAGCGCCATCTAC,0.436
15,GATGATTGTTCTCCCAGCTGATGAATTGTGTCGATCGAGTAAACAAATTTTCCTAATCTTTCTGTTCAAGCGCCATCTAC,0.976
16,GATGATTGTTCTCCCAGCTGATGAATTTATAGCCTCGAGTAAACAAATTTTCCTAATCTTTCTGTTCAAGCGCCATCTAC,1.19
17,GATGATTGTTCTCCCAGCTGATGAATTGTACATCTCGAGTAAACAAATTTTCCTAATCTTTCTGTTCAAGCGCCATCTAC,0.829
18,GATGATTGTTCTCCCAGCTGATGAATTTTACGCCTCGAGTAAACAAATTTTCCTAATCTTTCTGTTCAAGCGCCATCTAC,0.506
19,GATGATTGTTCTCCCAGCTGATGAATTAGCTTTTTCGAGTAAACAAATTTTCCTAATCTTTCTGTTCAAGCGCCATCTAC,2.22
20,GATGATTGTTCTCCCAGCTGATGAATTCATAGACTCGAGTAAACAAATTTTCCTAATCTTTCTGTTCAAGCGCCATCTAC,0.317
21,GATGATTGTTCTCCCAGCTGATGAATTTCAGCACTCGAGTAAACAAATTTTCCTAATCTTTCTGTTCAAGCGCCATCTAC,0.453

row,Sequence,binding signal (RPM ratio (pull-down/input))
1,GATGATTGTTCTCCCAGCTGATGAATTCTACTTCTCGAGTAAACAAATTTTCCTAATCTTTCTGTTCAAGCGCCATCTAC,0.349
2,GATGATTGTTCTCCCAGCTGATGAATTCTACTCTTCGAGTAAACAAATTTTCCTAATCTTTCTGTTCAAGCGCCATCTAC,0.307
3,GATGATTGTTCTCCCAGCTGATGAATTAACGGCTTCGAGTAAACAAATTTTCCTAATCTTTCTGTTCAAGCGCCATCTAC,0.288
4,GATGATTGTTCTCCCAGCTGATGAATTACCTGATTCGAGTAAACAAATTTTCCTAATCTTTCTGTTCAAGCGCCATCTAC,0.32
5,GATGATTGTTCTCCCAGCTGATGAATTAGATCTCTCGAGTAAACAAATTTTCCTAATCTTTCTGTTCAAGCGCCATCTAC,0.358
6,GATGATTGTTCTCCCAGCTGATGAATTCGGTATGTCGAGTAAACAAATTTTCCTAATCTTTCTGTTCAAGCGCCATCTAC,2.16
7,GATGATTGTTCTCCCAGCTGATGAATTCCTTAGCTCGAGTAAACAAATTTTCCTAATCTTTCTGTTCAAGCGCCATCTAC,0.222
8,GATGATTGTTCTCCCAGCTGATGAATTTATCGATTCGAGTAAACAAATTTTCCTAATCTTTCTGTTCAAGCGCCATCTAC,0.535
9,GATGATTGTTCTCCCAGCTGATGAATTGCTCGAATCGAGTAAACAAATTTTCCTAATCTTTCTGTTCAAGCGCCATCTAC,0.386
10,GATGATTGTTCTCCCAGCTGATGAATTGCCAGTCTCGAGTAAACAAATTTTCCTAATCTTTCTGTTCAAGCGCCATCTAC,0.608
11,GATGATTGTTCTCCCAGCTGATGAATTACTTGACTCGAGTAAACAAATTTTCCTAATCTTTCTGTTCAAGCGCCATCTAC,0.377
12,GATGATTGTTCTCCCAGCTGATGAATTTTCAAGGTCGAGTAAACAAATTTTCCTAATCTTTCTGTTCAAGCGCCATCTAC,0.168
13,GATGATTGTTCTCCCAGCTGATGAATTTGGGCTCTCGAGTAAACAAATTTTCCTAATCTTTCTGTTCAAGCGCCATCTAC,0.538
14,GATGATTGTTCTCCCAGCTGATGAATTGGTTTTGTCGAGTAAACAAATTTTCCTAATCTTTCTGTTCAAGCGCCATCTAC,2.91
15,GATGATTGTTCTCCCAGCTGATGAATTCCTATAGTCGAGTAAACAAATTTTCCTAATCTTTCTGTTCAAGCGCCATCTAC,0.316
16,GATGATTGTTCTCCCAGCTGATGAATTTCAGATCTCGAGTAAACAAATTTTCCTAATCTTTCTGTTCAAGCGCCATCTAC,0.248
17,GATGATTGTTCTCCCAGCTGATGAATTAAAAGGCTCGAGTAAACAAATTTTCCTAATCTTTCTGTTCAAGCGCCATCTAC,0.309
18,GATGATTGTTCTCCCAGCTGATGAATTATTGTGGTCGAGTAAACAAATTTTCCTAATCTTTCTGTTCAAGCGCCATCTAC,1.45
19,GATGATTGTTCTCCCAGCTGATGAATTTACAGCTTCGAGTAAACAAATTTTCCTAATCTTTCTGTTCAAGCGCCATCTAC,0.558
20,GATGATTGTTCTCCCAGCTGATGAATTTCTCCTTTCGAGTAAACAAATTTTCCTAATCTTTCTGTTCAAGCGCCATCTAC,0.245
21,GATGATTGTTCTCCCAGCTGATGAATTGTGTTTTTCGAGTAAACAAATTTTCCTAATCTTTCTGTTCAAGCGCCATCTAC,6.66

row,Sequence,binding signal (RPM ratio (pull-down/input))
1,GATGATTGTTCTCCCAGCTGATGAATTGCTATGTTCGAGTAAACAAATTTTCCTAATCTTTCTGTTCAAGCGCCATCTAC,1.18
2,GATGATTGTTCTCCCAGCTGATGAATTTTCTTTATCGAGTAAACAAATTTTCCTAATCTTTCTGTTCAAGCGCCATCTAC,1.27
3,GATGATTGTTCTCCCAGCTGATGAATTATGCAATTCGAGTAAACAAATTTTCCTAATCTTTCTGTTCAAGCGCCATCTAC,5.58
4,GATGATTGTTCTCCCAGCTGATGAATTCAAGATCTCGAGTAAACAAATTTTCCTAATCTTTCTGTTCAAGCGCCATCTAC,0.23
5,GATGATTGTTCTCCCAGCTGATGAATTATAGCGGTCGAGTAAACAAATTTTCCTAATCTTTCTGTTCAAGCGCCATCTAC,0.434
6,GATGATTGTTCTCCCAGCTGATGAATTAGGCAGCTCGAGTAAACAAATTTTCCTAATCTTTCTGTTCAAGCGCCATCTAC,1.13
7,GATGATTGTTCTCCCAGCTGATGAATTGTTTCTCTCGAGTAAACAAATTTTCCTAATCTTTCTGTTCAAGCGCCATCTAC,1.47
8,GATGATTGTTCTCCCAGCTGATGAATTCTTTGATTCGAGTAAACAAATTTTCCTAATCTTTCTGTTCAAGCGCCATCTAC,0.276
9,GATGATTGTTCTCCCAGCTGATGAATTCACGGTCTCGAGTAAACAAATTTTCCTAATCTTTCTGTTCAAGCGCCATCTAC,0.394
10,GATGATTGTTCTCCCAGCTGATGAATTAATATGTTCGAGTAAACAAATTTTCCTAATCTTTCTGTTCAAGCGCCATCTAC,1.2
11,GATGATTGTTCTCCCAGCTGATGAATTCGTGAGGTCGAGTAAACAAATTTTCCTAATCTTTCTGTTCAAGCGCCATCTAC,0.398
12,GATGATTGTTCTCCCAGCTGATGAATTCAGTCGGTCGAGTAAACAAATTTTCCTAATCTTTCTGTTCAAGCGCCATCTAC,0.268
13,GATGATTGTTCTCCCAGCTGATGAATTTGCTGTGTCGAGTAAACAAATTTTCCTAATCTTTCTGTTCAAGCGCCATCTAC,6.29
14,GATGATTGTTCTCCCAGCTGATGAATTACAACTATCGAGTAAACAAATTTTCCTAATCTTTCTGTTCAAGCGCCATCTAC,0.938
15,GATGATTGTTCTCCCAGCTGATGAATTAGTTCAATCGAGTAAACAAATTTTCCTAATCTTTCTGTTCAAGCGCCATCTAC,0.307
16,GATGATTGTTCTCCCAGCTGATGAATTCATCCAATCGAGTAAACAAATTTTCCTAATCTTTCTGTTCAAGCGCCATCTAC,0.318
17,GATGATTGTTCTCCCAGCTGATGAATTGAAGCGCTCGAGTAAACAAATTTTCCTAATCTTTCTGTTCAAGCGCCATCTAC,0.396
18,GATGATTGTTCTCCCAGCTGATGAATTTCGGAGTTCGAGTAAACAAATTTTCCTAATCTTTCTGTTCAAGCGCCATCTAC,0.395
19,GATGATTGTTCTCCCAGCTGATGAATTCCGTAACTCGAGTAAACAAATTTTCCTAATCTTTCTGTTCAAGCGCCATCTAC,1.77
20,GATGATTGTTCTCCCAGCTGATGAATTCTCGATATCGAGTAAACAAATTTTCCTAATCTTTCTGTTCAAGCGCCATCTAC,0.375
21,GATGATTGTTCTCCCAGCTGATGAATTCAGGAGATCGAGTAAACAAATTTTCCTAATCTTTCTGTTCAAGCGCCATCTAC,0.192
